Laboratory results reported in PubChem BioAssay AID360 (National Center for Advancing Translational Sciences (NCATS), 2006).
About 550 (1.1%) of roughly 48,000 compounds were called active. Roughly 4% stayed inconclusive and do not appear here. Cut-off read from the data, not from the text of the source: active = potency below about 15 µM; inconclusive = mostly about 16 µM to 33 µM; inactive = weaker than that. The list shows a part of the results.

These compounds were tested against Lysosomal acid glucosylceramidase (Homo sapiens) (UniProt P04062) (assay: Glucocerebrosidase). Conditions: purified enzyme, resorufin glucoside fluorescence (screen aimed at inhibitors), 20 min; series mostly up to 77 µM.
Text: NCGC Assay Overview: Beta-glucocerebrosidase catalyzes the hydrolysis of beta-glucocerebroside to glucose and ceramide. The inherited deficiency of beta-glucocerebrosidase results in Gaucher disease, which is characterized by a wide variety of symptoms including hepatosplenomegaly, anemia, thrombocytopenia, bony lesions and bone marrow infiltration with characteristic storage cells, known as Gaucher cells. There are also forms of the disorder affecting the central nervous system. Patients with the same genotypes can manifest with diverse clinical presentations and it is believed that improper folding and trafficking of beta-glucocerbrosidase may contribute to the phenotypes observed. Low molecular weight molecules, acting as chaperones, may potentially restore trafficking of misfolded beta-glucocerebrosidase from the endoplasmic reticulum to the lysosomes, thereby enhancing functional lysosomal beta-glucocerebrosidase activity. Using normal beta-glucocerebrosidase, an assay was developed to screen for small molecule inhibitors that could potentially act as molecular chaperones on the mutant forms [developed with NIH investigator Dr. Ellen Sidransky's laboratory]. Two pro-fluorescent substrates were chosen for two screens against a small molecule library. One beta-glucocerebrosidase assay used Resorufin beta-D-Glucopyranoside (Marker Gene Technology Inc.), generating a red fluorescent product. The second assay used Fluorescein di-beta-D-Glucopyranoside, generating a blue fluorescent product. […] The IC50 values of Conduritol B Epoxide, a known glucocerebrosidase inhibitor, were determined to be 87.5 uM and 117 uM, respectively. The use of two difference pro-fluorescent substrates in the screens helped to eliminate false positives. All compounds were screened in a titration series resulting in AC50s (e.g., IC50s or EC50s).
NCGC Assay Protocol Summary: Both enzyme and substrate were diluted in buffer composed of 50mM citric acid/KH2PO4, 10mM sodium taurocholate and 0.01% tween-20 at pH 5.9. The final concentration of the enzyme was 0.2 nM in both assays. The compound library was titrated in 7 to 15 concentrations for the primary screens with a final concentration ranging from 0.6 nM to 50 uM. This particular assay protocol is for the "red" substrate, and it was performed in 1536-well plate format as follows: Red fluorescence substrate assay: 2 uL enzyme 23 nL compound 1 uL substrate (final concentration of 30 uM) Incubate at room temperature (RT) for 20 minutes Read the plate in Viewlux plate reader (Ex=548(7) and Em=600(10)).
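Note: the screen sought inhibitors.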
Potency is the fitted concentration of half-maximal effect.

Chain of UniProt P04062 (P04062 whole entry, looked up): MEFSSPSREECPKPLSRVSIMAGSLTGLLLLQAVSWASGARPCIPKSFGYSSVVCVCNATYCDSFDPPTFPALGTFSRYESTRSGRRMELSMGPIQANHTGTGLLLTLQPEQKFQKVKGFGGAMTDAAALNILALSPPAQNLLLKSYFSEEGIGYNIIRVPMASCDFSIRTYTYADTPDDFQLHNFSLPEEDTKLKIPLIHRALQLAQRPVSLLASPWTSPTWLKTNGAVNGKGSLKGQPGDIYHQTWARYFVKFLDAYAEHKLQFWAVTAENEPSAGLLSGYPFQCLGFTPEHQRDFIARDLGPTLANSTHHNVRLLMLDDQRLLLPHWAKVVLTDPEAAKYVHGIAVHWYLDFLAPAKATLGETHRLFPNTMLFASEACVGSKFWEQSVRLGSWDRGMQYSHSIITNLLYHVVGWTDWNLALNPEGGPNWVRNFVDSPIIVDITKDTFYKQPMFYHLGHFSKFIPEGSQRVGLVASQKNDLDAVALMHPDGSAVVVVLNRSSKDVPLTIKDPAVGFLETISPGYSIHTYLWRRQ

Potency, inactive:
Cn1c(=O)c2c(nc(NCc3ccco3)n2CC(O)COc2ccccc2)n(C)c1=O (stereo not given) > 76.9 µM, CCC(C)(C)n1nnnc1CN1CCN(c2nc3cc(OC)ccc3cc2C#N)CC1 > 76.9 µM, COc1ccc(C(=O)OCn2nnc3ccccc3c2=O)cc1OC > 76.9 µM, COc1ccc(NC(=O)CN2CCC3(O)CCCCC3C2c2ccccc2OC)cc1 (stereo not given) > 76.9 µM, O=C(CCC1CCCC1)NCCCN1CCOCC1 > 76.9 µM, Cc1cc(NC(=O)CSc2nnc(COc3cccc(C)c3C)n2Cc2ccco2)no1 > 76.9 µM, CC(=O)c1cccc(S(=O)(=O)N2CCCC(c3nc(-c4ccc(C)o4)no3)C2)c1 (stereo not given) > 76.9 µM, CCC(=O)N(Cc1ccc2c(c1)OCO2)Cc1cc2cc(OC)ccc2[nH]c1=O > 76.9 µM, COc1ccc(CCNC(=O)Cn2cnc3c(cnn3C(C)(C)C)c2=O)cc1OC > 76.9 µM, C=CCn1c(COc2cccc3ccc(C)nc23)nnc1SCC(=O)O > 76.9 µM, CCC(Oc1ccccc1)C(=O)N1CCN(c2ccccn2)CC1 (stereo not given) > 76.9 µM, O=C(Cc1cn2ccsc2n1)NCCc1ccc(F)cc1 > 76.9 µM, CCCNC(=O)CCNC(=O)c1ccc(C(C)(C)C)cc1 > 76.9 µM, Cc1ccc(NC(=O)c2cc(-c3ccco3)on2)cc1 > 76.9 µM, COc1ccc(N/C(C)=C2/C(=O)C(=O)N(CCO)C2c2ccc(Br)cc2)cc1 (stereo not given) > 76.9 µM, CN1CCN(CCCn2cnc3c(=O)oc4ccccc4c32)CC1 > 76.9 µM, COc1ccc(NC(=O)N2CCN(S(C)(=O)=O)CC2)cc1OC > 76.9 µM, Cc1nc(-c2cccc(S(=O)(=O)N3CCOCC3)c2)cs1 > 76.9 µM, COc1ccccc1C(=O)N1CCc2ccccc21 > 76.9 µM, COCCCNC(=O)CCn1c(=O)c2ccccc2n(CC(=O)Nc2ccc(C)cc2C)c1=O > 76.9 µM, CCN(CCCNC(=O)c1c(C)cc(=O)oc1C)c1cccc(C)c1 > 76.9 µM, COc1cccc(-n2c(C)nnc2SCC#N)c1 > 76.9 µM, O=C(c1ccncc1)c1nccn1-c1ccccn1 > 76.9 µM, O=C(Nc1ccc2c(c1)C(=O)N(C1CCCCC1)C2=O)C1CCCO1 (stereo not given) > 76.9 µM, COCc1[nH]nc2c1C(c1ccsc1)C(C#N)=C(N)O2 (stereo not given) > 76.9 µM
